This is an account of results in paper PMC7242078.

These are yes or no findings as the source states them, for the method shown. For part of these data: Binding seen in cells or lysates may run through a third protein. Some binding calls cover weakened binding; strength is not graded here. For part of these data: Where a sequence is shown, tags or fusion partners need not be part of it.

The target in assay [1] is T1, CBL-interacting protein kinase 8 (pGBKT7-CIPK8) (Arabidopsis) (UniProt Q9STV4).
T1 sequence: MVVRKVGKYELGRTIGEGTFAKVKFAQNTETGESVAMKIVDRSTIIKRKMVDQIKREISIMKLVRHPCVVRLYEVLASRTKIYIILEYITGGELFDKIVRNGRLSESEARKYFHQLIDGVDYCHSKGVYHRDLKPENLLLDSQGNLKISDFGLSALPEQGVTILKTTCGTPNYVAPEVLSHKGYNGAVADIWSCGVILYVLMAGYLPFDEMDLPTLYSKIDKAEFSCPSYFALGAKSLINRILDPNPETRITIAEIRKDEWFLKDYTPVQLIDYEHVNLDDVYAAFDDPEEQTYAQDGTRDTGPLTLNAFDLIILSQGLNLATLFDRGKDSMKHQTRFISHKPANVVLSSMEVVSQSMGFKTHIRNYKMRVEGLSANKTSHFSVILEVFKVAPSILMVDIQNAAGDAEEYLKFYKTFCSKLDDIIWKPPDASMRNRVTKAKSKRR
The assay is described as follows: two-hybrid; MatchMaker yeast two-hybrid system (Clontech), Y2HGold yeast co-transformed with pGBKT7-CIPK8 and pGADT7-CBLs; growth on QDO/X/A (lacking Leu, Ade, His and Trp, with 40 ug/ml X-alpha-Gal and 125 ng/ml aureobasidin A).

Assay [2] addresses T2, CIPK8 luciferase-fragment fusion (pCAMBIA1300-cLUC, primers CIPK8-cLUC-F/R) (Arabidopsis) (UniProt Q9STV4).
T2 sequence: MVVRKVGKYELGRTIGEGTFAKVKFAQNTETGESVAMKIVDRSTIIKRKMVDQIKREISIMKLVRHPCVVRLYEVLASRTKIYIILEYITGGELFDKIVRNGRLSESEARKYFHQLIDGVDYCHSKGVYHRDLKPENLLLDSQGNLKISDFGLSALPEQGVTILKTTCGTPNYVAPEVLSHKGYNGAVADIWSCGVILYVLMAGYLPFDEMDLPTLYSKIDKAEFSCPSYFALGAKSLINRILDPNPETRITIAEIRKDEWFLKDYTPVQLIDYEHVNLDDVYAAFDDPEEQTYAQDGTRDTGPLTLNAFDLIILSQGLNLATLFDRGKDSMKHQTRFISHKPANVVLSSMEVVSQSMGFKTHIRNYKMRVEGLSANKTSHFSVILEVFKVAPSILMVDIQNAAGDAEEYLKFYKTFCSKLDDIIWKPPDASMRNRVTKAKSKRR
Nature of the assay: split reporter; Split-LUC in tobacco leaf cells; data not shown.

B1: Calcineurin B-like protein 8 (pGADT7-CBL8) (protein, UniProt Q9FUQ7 1-214)
chain: MLAFVKCFSLKRAKHPRGYEDPHVLASETPFTVNEIEALHDLFKKLSTSIINDGLIHKEEFLLALFRNGSMQNLFADRVFYMFDRKRNGVIEFGEFVRSLSIFHPYTPEHEKSAFMFKLFDLHGTGFIEPHELKKMVGALLGETDLELSEESIEAIVEQTMLEVDTNKDGKIDEEEWKELVAKNPSILKNMTLPYLKEVTLAFPSFVLDSEVED
B1: the binding result in assay [1] is listed as “no binding”.

B2: Calcineurin B-like protein 5 (pGADT7-CBL5) (protein, UniProt Q7FZF1 1-203)
chain: MGCVCSKQLEGRRQEDISLLASQTFFSEAEVEVLHGLFIKLTSCLSNDNLLTKEKFQFILIKNTKKRSLSAERIFGLFDMRNDGAIDFGEFVHTLNIFHPNSSPRDKAIFAFRLYDTRETGFIEPEEVKEMIIDVLEESELMLSESIIDSIVSKTFEEADWKKDGIIDLEEWENFVATYPLTLKNMTIPFLKDIPRIFPTFLR
In the case of B2, the binding result in assay [1] is given as “binds”.

B3: CBL5 in the Split-LUC assay (protein, UniProt Q7FZF1 1-203)
chain: MGCVCSKQLEGRRQEDISLLASQTFFSEAEVEVLHGLFIKLTSCLSNDNLLTKEKFQFILIKNTKKRSLSAERIFGLFDMRNDGAIDFGEFVHTLNIFHPNSSPRDKAIFAFRLYDTRETGFIEPEEVKEMIIDVLEESELMLSESIIDSIVSKTFEEADWKKDGIIDLEEWENFVATYPLTLKNMTIPFLKDIPRIFPTFLR
With B3, the binding result in assay [2] is recorded as “binds”.
